Assay results as given in the supplement of paper PMC11417369.
± gives the standard deviation of the averaged measurements. The list shows a part of the results.

system: PfAP2-G AP2 domain (GST-tagged); assay: gcPBM binding intensity (ln(normalized median fluorescence intensity)); higher = stronger DNA binding
Procedure, shortened: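 Binding intensity values are the highest Masliner-normalised natural-log median intensity among replicate spots of either probe orientation. The binding step lasted 1 h in 1× PBS with 1% milk, 0.2 mg/ml BSA, 0.5% salmon testes DNA and 0.03% Triton X-100, using GST-tagged P. falciparum DNA-binding domains expressed in E. coli on an Agilent 4 × 180k array of primer-extended double-stranded 36-bp intergenic genomic probes plus negative controls. Alexa488 anti-GST antibody and a 488 nm scan detected bound protein.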

| Sequence | gcPBM binding intensity (ln) |
| --- | --- |
| CACGCGCCCGGACACACACACACACCCATATATATA [CACACA_site5251] | 10.8 ± 0.57 |
| GAATAAATATTAAATGTGCACTTGAATAGATGTAAA | 10.2 ± 0.17 |
| TTTTTCATCATATGTTGTACAATGTGTAGATATATT [XGTACX_site3195] | 11.2 ± 0.76 |
| GATAAATGTATATATGCATGCACATATATTTATACA [TGCATGCA_site748] | 9.83 ± 0.071 |
| CGTAGCCACACTAACACACACAAATATACACAATCA [CACACA_site7379] | 10.2 ± 0.23 |
| ATTTAAATAACGTATGTATATACATATATATATATA [TGCATGCA_negctrl_site207] | 10.1 ± 0.43 |
| TATTTTGTATATAAATGTACAAGTATATATTTTTTC [XGTACX_site7855] | 11 ± 0.65 |
| TATTTGTAATATTATACACACATTATATATTACAAA [CACACA_site5804] | 9.98 ± 0.27 |
| TATGAATATTTGTATACATGCATATAGAAATCATAT [TGCATGCA_site533] | 9.8 ± 0.028 |
| ATATATTATATATATATATATATATATTATTATTGT [TGCATGCA_negctrl_site286] | 9.84 ± 0.45 |
| TGCATTATTTACAAGGTGCGTTACAAATGTGTAACA [GTGCAC_site9442] | 10 ± 0.2 |
| GCTTTAATCTGAAAGTGTACAGATAATATATTTATA [XGTACX_site2462] | 11.2 ± 0.8 |
| ATATGGTGATATAGGTGTACATTTTGATGCTTATTT [XGTACX_site4283] | 11.3 ± 0.71 |
| TTATACATGAAATATTGTACACATATATATATATAT [XGTACX_site4378] | 11.4 ± 0.86 |
| TACTATAACGCACATACACACAAAAAAAAAAAAAAA [CACACA_site8073] | 10.2 ± 0.68 |
| TATATATATATTTTTGCATGTAATTTTTATGAGGAC [TGCATGCA_site884] | 9.95 ± 0.26 |
| TTACTCAAACAAACAAAAAAAAAAAAAAAAAAAAAA [TGCATGCA_negctrl_site457] | 9.53 ± 0.3 |
| TTTTTTTTTTTCTTAGTGCGCGTGAAAAATATAAAA | 10.4 ± 0.49 |
| AATTAGATTATGCACACACACTTAAAAATAATAAAT [CACACA_site7015] | 10.2 ± 0.22 |
| ATTTTTTATGGACAAAAGACCTCTGATGTAAATATA [CACACA_negctrl_site1081] | 10.8 ± 0.65 |
| ATATATAGAATGTGTACACACATATGTATTTATATA [CACACA_site810] | 11.6 ± 0.86 |
| CTTTCTCTCAAAATGACATGCAATTTGTTTCTTTTT [TGCATGCA_site169] | 9.64 ± 0.16 |

| Sequence | gcPBM binding intensity (ln) |
| --- | --- |
| ATTATTGATTTATAAACACACACTCGAAGATGTTTA [CACACA_site8294] | 9.98 ± 0.15 |
| TTGAAATACTTTATTTGTACATATAGCAAAGTGTAT [XGTACX_site8782] | 11 ± 0.59 |
| ATTTTTTCTAGACATGCATGTGAAATTTACTTTTTT [TGCATGCA_site305] | 9.945 ± 0.078 |
| ATATATATATATATTTGTACTTAATTGATTTTACTT [XGTACX_site2663] | 10.9 ± 0.53 |
| ATGCGTTTAGCAAAAAGTACATATATATATAATATT [XGTACX_site1928] | 11.2 ± 0.73 |
| ATTTTTTTTTAATGCAATATATTTTGAAAATTTTAT [CACACA_negctrl_site753] | 9.855 ± 0.049 |
| TTTTTTTTTTTTTTTACACACTTTATTCAAACAACT [CACACA_site4104] | 9.94 ± 0.52 |
| CTTTTTTTTTTTTTTGCACACACATATATAAATATA [CACACA_site3950] | 10.3 ± 0.24 |
| AGTGGAAATTTTATTTGTACATAAATATTTACATAC [XGTACX_site633] | 10.9 ± 0.66 |
| AAAAAAATATATAATAGTACATATATAGGAATATAT [XGTACX_site4591] | 10.9 ± 0.59 |
| TAATATCTTGAGTCATCACACATTGATTAATGAATC [CACACA_site5735] | 9.63 ± 0.15 |
| TGAATACAGATATTCACACAAATAGTTTTGATATAT [CACACA_site5527] | 9.68 ± 0.16 |
| TTTTTTTTTTTTTTTTTTTTTTTTTCATATTAATAT [GTGCAC_negctrl_site351] | 9.52 ± 0.33 |
| AATTTATTAAAAAAATGTACTTATTTTTTTGTATAA [XGTACX_site5844] | 11.2 ± 0.79 |
| ATTGATACATCCAATACACACTACATATTATGATGT [CACACA_site6965] | 10.2 ± 0.13 |
| TTGGCATACAGACACACACACACACCCCCACATATA [CACACA_site590] | 10.8 ± 0.54 |
| ACATATTGTAGATATTGTACATATTGTGTATATATT [XGTACX_site7620] | 10.9 ± 0.64 |
| TATATATATGTTCTTACACACACGAATATATATATG [CACACA_site3304] | 10.1 ± 0.13 |
| AATATGGAATGAAATAACAATCGGGAGTATATTACC [CACACA_negctrl_site93] | 10.3 ± 0.13 |
| ACGATTCAAAGGGAATATAAAATATTATTATCTATA [CACACA_negctrl_site1739] | 9.54 ± 0.26 |
| TGTATAAAAAGAAAAAATCGTATGTGTTATCAAAAA [GTGCAC_negctrl_site490] | 9.82 ± 0.13 |
| AATAGAATAATCCTTACACACACACCCACACGAATA [CACACA_site8053] | 10.5 ± 0.48 |
